The list shows a part of the results.
Columns and labels:
Experiment in all cases: glycan array binding signal (z-score within array); higher = stronger binding
Settings in all cases: glycan notation: IUPAC condensed, linker removed
[1] = biological target: Fuc(a1-2)Gal(b1-4)GlcNAc(b1-3)Gal(b1-4)GlcNAc(b1-2)Man(a1-3)[Fuc(a1-2)Gal(b1-4)GlcNAc(b1-3)Gal(b1-4)GlcNAc(b1-2)Man(a1-6)]Man(b1-4)GlcNAc(b1-4)GlcNAc
Summary of the method: (§1)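 The Consortium for Functional Glycomics database supplied 3228 glycan arrays, of which those lacking an available protein sequence were dropped. The binding signal, a within-array Z-score, was averaged across arrays of the same protein sequence and across linkers. Negative scores can be read as non-binding.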

[2] = biological target: Fuc(a1-2)Gal(b1-4)GlcNAc(b1-3)Gal(b1-4)GlcNAc(b1-3)Gal(b1-4)GlcNAc
Summary of the method: as §1

[3] = biological target: Fuc(a1-2)Gal(b1-4)GlcNAc(b1-3)GalNAc
Summary of the method: as §1

[4] = biological target: Fuc(a1-2)Gal(b1-4)GlcNAc(b1-3)[Fuc(a1-2)Gal(b1-4)GlcNAc(b1-6)]GalNAc
Summary of the method: as §1

[5] = biological target: Fuc(a1-2)Gal(b1-4)GlcNAc(b1-3)[Fuc(a1-3)[Gal(b1-4)]GlcNAc(b1-6)]Gal(b1-4)Glc
Summary of the method: as §1

[6] = biological target: Fuc(a1-2)Gal(b1-4)GlcNAc(b1-6)GalNAc
Summary of the method: as §1

[7] = biological target: Fuc(a1-2)Gal(b1-4)GlcNAc6S
Summary of the method: as §1

[8] = biological target: Fuc(a1-2)Gal(b1-4)[Fuc(a1-3)]GlcNAc
Summary of the method: as §1

[9] = biological target: Fuc(a1-2)Gal(b1-4)[Fuc(a1-3)]GlcNAc(b1-2)Man(a1-3)[Fuc(a1-2)Gal(b1-4)[Fuc(a1-3)]GlcNAc(b1-2)Man(a1-6)]Man(b1-4)GlcNAc(b1-4)[Fuc(a1-6)]GlcNAc
Summary of the method: as §1

[10] = biological target: Fuc(a1-2)Gal(b1-4)[Fuc(a1-3)]GlcNAc(b1-2)[Fuc(a1-2)Gal(b1-4)[Fuc(a1-3)]GlcNAc(b1-4)]Man(a1-3)[Fuc(a1-2)Gal(b1-4)[Fuc(a1-3)]GlcNAc(b1-2)Man(a1-6)]Man(b1-4)GlcNAc(b1-4)GlcNAc
Summary of the method: as §1

[11] = biological target: Fuc(a1-2)Gal(b1-4)[Fuc(a1-3)]GlcNAc(b1-3)Gal(b1-4)[Fuc(a1-3)]GlcNAc
Summary of the method: as §1

[12] = biological target: Fuc(a1-2)Gal(b1-4)[Fuc(a1-3)]GlcNAc(b1-3)Gal(b1-4)[Fuc(a1-3)]GlcNAc(b1-3)Gal(b1-4)[Fuc(a1-3)]GlcNAc
Summary of the method: as §1

[13] = biological target: Fuc(a1-2)Gal(b1-4)[Fuc(a1-3)]GlcNAc(b1-3)GalNAc
Summary of the method: as §1

[14] = biological target: Fuc(a1-2)Gal(b1-4)[Fuc(a1-3)]GlcNAc(b1-3)[Neu5Ac(a2-6)Gal(b1-4)GlcNAc(b1-6)]Gal(b1-4)Glc
Summary of the method: as §1

[15] = biological target: Fuc(a1-2)Gal3S(b1-4)GlcNAc
Summary of the method: as §1

[16] = biological target: Fuc(a1-2)Gal6S(b1-3)GlcNAc
Summary of the method: as §1

[17] = biological target: Fuc(a1-2)Gal6S(b1-3)GlcNAc6S
Summary of the method: as §1

Fuc(a1-2)Gal6S(b1-4)Glc = biological target: Fuc(a1-2)Gal6S(b1-4)Glc
Summary of the method: as §1

[18] = biological target: Fuc(a1-2)Gal6S(b1-4)Glc6S
Summary of the method: as §1

Fuc(a1-2)[Gal(a1-3)]Gal = biological target: Fuc(a1-2)[Gal(a1-3)]Gal
Summary of the method: as §1

[19] = biological target: Fuc(a1-2)[Gal(a1-3)]Gal(b1-3)GalNAc
Summary of the method: as §1

[20] = biological target: Fuc(a1-2)[Gal(a1-3)]Gal(b1-3)GalNAc(b1-3)Gal(a1-4)Gal(b1-4)Glc
Summary of the method: as §1

[21] = biological target: Fuc(a1-2)[Gal(a1-3)]Gal(b1-3)GlcNAc
Summary of the method: as §1

[22] = biological target: Fuc(a1-2)[Gal(a1-3)]Gal(b1-3)GlcNAc(b1-2)Man(a1-3)[Fuc(a1-2)[Gal(a1-3)]Gal(b1-3)GlcNAc(b1-2)Man(a1-6)]Man(b1-4)GlcNAc(b1-4)GlcNAc
Summary of the method: as §1

[23] = biological target: Fuc(a1-2)[Gal(a1-3)]Gal(b1-3)GlcNAc(b1-2)Man(a1-3)[Fuc(a1-2)[Gal(a1-3)]Gal(b1-3)GlcNAc(b1-2)Man(a1-6)]Man(b1-4)GlcNAc(b1-4)[Fuc(a1-6)]GlcNAc
Summary of the method: as §1

[24] = biological target: Fuc(a1-2)[Gal(a1-3)]Gal(b1-3)GlcNAc(b1-3)GalNAc
Summary of the method: as §1

[25] = biological target: Fuc(a1-2)[Gal(a1-3)]Gal(b1-3)GlcNAc(b1-6)GalNAc
Summary of the method: as §1

[26] = biological target: Fuc(a1-2)[Gal(a1-3)]Gal(b1-4)Glc
Summary of the method: as §1

[27] = biological target: Fuc(a1-2)[Gal(a1-3)]Gal(b1-4)GlcNAc
Summary of the method: as §1

[28] = biological target: Fuc(a1-2)[Gal(a1-3)]Gal(b1-4)GlcNAc(b1-2)Man
Summary of the method: as §1

[29] = biological target: Fuc(a1-2)[Gal(a1-3)]Gal(b1-4)GlcNAc(b1-2)Man(a1-3)[Fuc(a1-2)[Gal(a1-3)]Gal(b1-4)GlcNAc(b1-2)Man(a1-6)]Man(b1-4)GlcNAc(b1-4)GlcNAc
Summary of the method: as §1

[30] = biological target: Fuc(a1-2)[Gal(a1-3)]Gal(b1-4)GlcNAc(b1-2)Man(a1-3)[Fuc(a1-2)[Gal(a1-3)]Gal(b1-4)GlcNAc(b1-2)Man(a1-6)]Man(b1-4)GlcNAc(b1-4)[Fuc(a1-6)]GlcNAc
Summary of the method: as §1

[31] = biological target: Fuc(a1-2)[Gal(a1-3)]Gal(b1-4)GlcNAc(b1-3)GalNAc
Summary of the method: as §1

[32] = biological target: Fuc(a1-2)[Gal(a1-3)]Gal(b1-4)GlcNAc(b1-3)[Fuc(a1-2)[Gal(a1-3)]Gal(b1-4)GlcNAc(b1-6)]GalNAc
Summary of the method: as §1

[33] = biological target: Fuc(a1-2)[Gal(a1-3)]Gal(b1-4)GlcNAc(b1-6)GalNAc
Summary of the method: as §1

[34] = biological target: Fuc(a1-2)[Gal(a1-3)]Gal(b1-4)[Fuc(a1-3)]Glc
Summary of the method: as §1

[35] = biological target: Fuc(a1-2)[Gal(a1-3)]Gal(b1-4)[Fuc(a1-3)]GlcNAc
Summary of the method: as §1

[36] = biological target: Fuc(a1-2)[Gal(a1-3)]Gal(b1-4)[Fuc(a1-3)]GlcNAc(b1-3)GalNAc
Summary of the method: as §1

[37] = biological target: Fuc(a1-2)[Gal(a1-4)]Gal(b1-4)GlcNAc
Summary of the method: as §1

[38] = biological target: Fuc(a1-2)[GalNAc(a1-3)]Gal
Summary of the method: as §1

[39] = biological target: Fuc(a1-2)[GalNAc(a1-3)]Gal(b1-3)GalNAc(a1-3)[Fuc(a1-2)]Gal(b1-4)GlcNAc
Summary of the method: as §1

[40] = biological target: Fuc(a1-2)[GalNAc(a1-3)]Gal(b1-3)GalNAc(b1-3)Gal(a1-4)Gal(b1-4)Glc
Summary of the method: as §1

[41] = biological target: Fuc(a1-2)[GalNAc(a1-3)]Gal(b1-3)GlcNAc
Summary of the method: as §1

[42] = biological target: Fuc(a1-2)[GalNAc(a1-3)]Gal(b1-3)GlcNAc(b1-2)Man(a1-3)[Fuc(a1-2)[GalNAc(a1-3)]Gal(b1-3)GlcNAc(b1-2)Man(a1-6)]Man(b1-4)GlcNAc(b1-4)GlcNAc
Summary of the method: as §1

[43] = biological target: Fuc(a1-2)[GalNAc(a1-3)]Gal(b1-3)GlcNAc(b1-2)Man(a1-3)[Fuc(a1-2)[GalNAc(a1-3)]Gal(b1-3)GlcNAc(b1-2)Man(a1-6)]Man(b1-4)GlcNAc(b1-4)[Fuc(a1-6)]GlcNAc
Summary of the method: as §1

B1: SSR1 (Sclerotium rolfsii), A0A0M3KL30 (protein)
chain: TYKITVRVYQTNPDAFFHPVEKTVWKYANGGTWTITDDQHVLTMGGSGTSGTLRFHADNGESFTATFGVHNYKRWCDIVTNLAADETGMVINQQYYSQKNREEARERQLSNYQVKNAKGRNFQIVYTEAEGNDLHANLIIG
[1]
  glycan array binding signal (z-score): -0.288
[2]
  glycan array binding signal (z-score): -0.303
[3]
  glycan array binding signal (z-score): 0.054
[4]
  glycan array binding signal (z-score): -0.309
[5]
  glycan array binding signal (z-score): -0.328
[6]
  glycan array binding signal (z-score): 0.086
[7]
  glycan array binding signal (z-score): -0.375
[8]
  glycan array binding signal (z-score): -0.313
[9]
  glycan array binding signal (z-score): -0.3
[10]
  glycan array binding signal (z-score): -0.309
[11]
  glycan array binding signal (z-score): -0.306
[12]
  glycan array binding signal (z-score): -0.324
[13]
  glycan array binding signal (z-score): -0.326
[14]
  glycan array binding signal (z-score): -0.337
[15]
  glycan array binding signal (z-score): -0.327
[16]
  glycan array binding signal (z-score): -0.343
[17]
  glycan array binding signal (z-score): -0.331
Fuc(a1-2)Gal6S(b1-4)Glc
  glycan array binding signal (z-score): -0.345
[18]
  glycan array binding signal (z-score): -0.353
Fuc(a1-2)[Gal(a1-3)]Gal
  glycan array binding signal (z-score): -0.331
[19]
  glycan array binding signal (z-score): -0.327
[20]
  glycan array binding signal (z-score): -0.331
[21]
  glycan array binding signal (z-score): -0.313
[22]
  glycan array binding signal (z-score): -0.345
[23]
  glycan array binding signal (z-score): -0.311
[24]
  glycan array binding signal (z-score): -0.334
[25]
  glycan array binding signal (z-score): -0.347
[26]
  glycan array binding signal (z-score): -0.336
[27]
  glycan array binding signal (z-score): -0.332
[28]
  glycan array binding signal (z-score): -0.295
[29]
  glycan array binding signal (z-score): -0.333
[30]
  glycan array binding signal (z-score): -0.34
[31]
  glycan array binding signal (z-score): 0.325
[32]
  glycan array binding signal (z-score): -0.325
[33]
  glycan array binding signal (z-score): -0.34
[34]
  glycan array binding signal (z-score): -0.342
[35]
  glycan array binding signal (z-score): -0.326
[36]
  glycan array binding signal (z-score): -0.308
[37]
  glycan array binding signal (z-score): -0.328
[38]
  glycan array binding signal (z-score): 0.705
[39]
  glycan array binding signal (z-score): 0.844
[40]
  glycan array binding signal (z-score): 0.204
[41]
  glycan array binding signal (z-score): 0.355
[42]
  glycan array binding signal (z-score): 0.338
[43]
  glycan array binding signal (z-score): -0.312

Reference: the supplement of paper PMC8728848
